Source: paper PMC4336329 (PLoS ONE, 2015)
The whole screen tested about 310,000 compounds, of which about 14,000 (4.5%) showed an effect of 50% or more. Effects have a minus sign here. This is one part of the list.

target: human ether-à-go-go-related gene (hERG) potassium channel (human, UniProt Q12809); assay: primary screen, population patch clamp on CHO cells stably expressing hERG
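Also: peak tail current of the secondary pulse compared with the same well before compound.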

Sequence of human ether-à-go-go-related gene (hERG) potassium channel (Q12809 whole entry, looked up): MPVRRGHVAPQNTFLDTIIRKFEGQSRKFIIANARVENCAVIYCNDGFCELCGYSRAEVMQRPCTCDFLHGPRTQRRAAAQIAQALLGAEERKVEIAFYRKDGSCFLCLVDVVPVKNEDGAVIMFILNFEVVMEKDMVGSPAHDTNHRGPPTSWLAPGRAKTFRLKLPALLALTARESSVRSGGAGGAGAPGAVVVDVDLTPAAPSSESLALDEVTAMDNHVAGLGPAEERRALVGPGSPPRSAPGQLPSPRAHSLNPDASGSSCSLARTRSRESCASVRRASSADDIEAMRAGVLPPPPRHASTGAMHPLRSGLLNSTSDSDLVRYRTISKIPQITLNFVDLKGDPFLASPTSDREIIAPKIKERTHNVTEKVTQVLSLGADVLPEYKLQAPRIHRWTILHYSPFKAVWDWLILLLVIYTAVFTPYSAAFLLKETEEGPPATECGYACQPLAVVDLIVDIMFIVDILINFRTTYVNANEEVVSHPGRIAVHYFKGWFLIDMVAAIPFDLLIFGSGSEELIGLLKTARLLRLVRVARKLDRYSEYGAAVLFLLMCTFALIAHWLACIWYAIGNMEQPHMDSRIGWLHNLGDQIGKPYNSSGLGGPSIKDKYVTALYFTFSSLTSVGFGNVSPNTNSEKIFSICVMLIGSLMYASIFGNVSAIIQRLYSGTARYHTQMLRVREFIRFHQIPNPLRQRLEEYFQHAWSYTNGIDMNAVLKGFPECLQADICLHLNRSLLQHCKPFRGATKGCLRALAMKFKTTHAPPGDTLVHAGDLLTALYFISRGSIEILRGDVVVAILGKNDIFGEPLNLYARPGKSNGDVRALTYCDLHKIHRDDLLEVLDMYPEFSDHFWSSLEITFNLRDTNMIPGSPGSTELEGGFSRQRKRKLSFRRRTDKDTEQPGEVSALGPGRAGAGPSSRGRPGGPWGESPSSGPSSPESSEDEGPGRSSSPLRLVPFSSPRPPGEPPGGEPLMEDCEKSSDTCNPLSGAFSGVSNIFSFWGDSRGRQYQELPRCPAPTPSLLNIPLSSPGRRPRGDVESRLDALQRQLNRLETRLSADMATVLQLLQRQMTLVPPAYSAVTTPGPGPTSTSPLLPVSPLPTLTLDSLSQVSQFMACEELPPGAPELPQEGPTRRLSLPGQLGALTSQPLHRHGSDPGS

| SMILES | hERG current change (%, negative = inhibition) at 10uM [%] |
| --- | --- |
| COc1ccc(NC(C)=O)cc1S(=O)(=O)Nc1cccc(S(=O)(=O)NC2=NCCC2)c1 | 9.52 |
| Cc1ccc2c(c1)c1c3n2CCCNC3CCC1 (stereo not shown) | -49.4 |
| COc1ccc(NC(=O)CN(C)S(=O)(=O)c2ccc(Br)s2)cc1 | 9.34 |
| CCCCCCCNC(=O)COc1ccc2c(c1)C(=O)CC(C)(C)O2 | -14.4 |
| CC(CN(C)Cc1ccccc1)OC(=O)c1ccc(F)cc1.Cl (stereo not shown) | -9.59 |
| COC(=O)c1ccc(COc2ccc(-c3nnn(CC(N)=O)n3)cc2)cc1 | 11.3 |
| COCCN1C(=O)C(CC(=O)Nc2ccc(C(C)=O)cc2)SC1=Nc1ccccc1 (stereo not shown) | -3.86 |
| COc1cc(-c2c(C#N)c(=O)[nH]c3c2c(C)nn3-c2ccccc2)ccc1O | 16.3 |
| CCOc1cccc(NC(=O)Cn2nc(-c3ccc4c(c3)OCCO4)ccc2=O)c1 | 10.9 |
| COc1ccc(C(=O)NCC(=O)N/N=C/c2ccc([N+](=O)[O-])s2)cc1OC | -31.5 |
| Cc1cccc(-n2ncc3c(N4CCCC4)ncnc32)c1 | 13 |
| O=C(Cc1ccccc1)N1CCN(CC2CC3C=CC2C3)CC1.O=C(O)C(=O)O (stereo not shown) | -5.73 |
| Cc1cc(/C=N/NC(=O)CC2(C)OCCO2)c(C)n1-c1ccc(Cl)c(Cl)c1 | 3.62 |
| COc1ccc(S(=O)(=O)N2CC(C)N(C(=O)N(C)C)C2C)cc1 (stereo not shown) | 12.8 |
| CC(C)[C@H](CO)Nc1nc(NCc2ccc(S(N)(=O)=O)cc2)c2ncn(C(C)C)c2n1 | 5.05 |
| O=C(c1cccc(C(F)(F)F)c1)C1CCCN(Cc2ccc(OCCO)cc2)C1 (stereo not shown) | -69.8 |
| CCOc1ccc(CCNC(=O)C2CC=CCC2C(=O)OC(C)C)cc1OCC (stereo not shown) | 27.8 |
| O=C(Nc1cccc(F)c1)Nc1ccc2c(c1)OCO2 | 19.2 |
| Cc1cccc(OCC(=O)NNC(=O)Cn2c(=O)cnc3ccccc32)c1 | 3.65 |
| Cl.c1ccc(SCCCCN2CCOCC2)cc1 | 5.1 |
| Cc1ccc(S(=O)(=O)N2CCN(c3ccnc4cc(Cl)ccc34)CC2)cc1C | 30.7 |
| Cc1ccc(-n2ncc3c2ncn2nc(-c4ccco4)nc32)c(C)c1 | 6.33 |

| SMILES | hERG current change (%, negative = inhibition) at 10uM [%] |
| --- | --- |
| Cc1cc(C)c2c(CN3CCC(C)CC3)cc(=O)oc2c1C | 13 |
| COc1ccc(/C=N/NC(=O)c2cc(C)n(-c3ccccc3)c2C)cc1OC | -53.2 |
| CC(C)CCn1c(SCc2ccc(Cl)cc2)nc2c1c(=O)[nH]c(=O)n2C | 3.75 |
| CC1=C(C(=O)Nc2ccc(F)cc2)C(c2ccncc2)C2=C(CCCC2=O)N1 (stereo not shown) | -20.1 |
| CSC1CCCCC1(O)CSc1nc2c(cc1C#N)CCCC2 (stereo not shown) | 1.25 |
| CCCCC(=O)Nc1cc(C)c(NC(=O)c2ccco2)cn1 | 11.2 |
| Cc1ccc(-n2cc(CNCCN3CCOC3=O)c(-c3cccc(C)c3)n2)cc1 | -69.1 |
| CN(C)C(CNC(C(=O)Nc1ccc(F)cc1)c1ccccc1)c1ccccc1 (stereo not shown) | -70.6 |
| CCn1c(/C=C/Nc2ccccc2)[n+](CC)c2ccc(Cl)cc21.[I-] | -78.6 |
| CCOC(=O)C(=CNc1nc(-c2ccccc2)c(C(=O)Nc2ccc(-c3ccccc3)cc2)s1)C(=O)OCC | 4.56 |
| Cc1cccc(NC(=S)N(CCN(C)C)Cc2cc3cc(C)ccc3[nH]c2=O)c1 | -16.5 |
| COc1ccc(CCNC(=O)CN(Cc2ccc(Cl)cc2)S(C)(=O)=O)cc1OC | -3.36 |
| COc1ccc(OCCC(=O)OCC(=O)NC(=O)NC2CCCCC2)cc1 | 13.2 |
| CN(C)c1ccnc2sc3c(NCC(O)CO)ncnc3c12 (stereo not shown) | 5.66 |
| O=S(=O)([O-])CCS.[Na+] | 17.5 |
| CSCC[C@H](NC(=O)c1ccc(Cl)c([N+](=O)[O-])c1)c1nc2ccccc2[nH]1 | -20.2 |
| COc1ccc(C(C)=O)cc1COC(=O)c1c(C)noc1C | -7.22 |
| CCOC(=O)N1CCN(C(=O)/C(=C/c2cccc3ccccc23)NC(=O)c2ccc(OC)c(OC)c2)CC1 | -3.14 |
| O=C1C2C3C=CC(C3)C2C(=O)N1CCN1CCN(S(=O)(=O)c2ccc3ccccc3c2)CC1 (stereo not shown) | -2.23 |
| O=C(Nc1ccccc1)c1ccccc1CCc1ccccc1 | 11.8 |
| COc1ccc(N(C)C(=O)c2cc3c(s2)-c2ccccc2S(=O)(=O)C3)cc1 | -39.9 |
